Results reported in PMC4336329 (PLoS ONE, 2015).
The whole screen tested about 310,000 compounds, of which about 14,000 (4.5%) showed an effect of 50% or more. Effects have a minus sign here. This is one part of the list.

Each compound was assayed against human ether-à-go-go-related gene (hERG) potassium channel (human, UniProt Q12809) (assay: primary screen, population patch clamp on CHO cells stably expressing hERG).
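Note: peak tail current of the secondary pulse compared with the same well before compound.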

Chain of human ether-à-go-go-related gene (hERG) potassium channel (Q12809 whole entry, looked up): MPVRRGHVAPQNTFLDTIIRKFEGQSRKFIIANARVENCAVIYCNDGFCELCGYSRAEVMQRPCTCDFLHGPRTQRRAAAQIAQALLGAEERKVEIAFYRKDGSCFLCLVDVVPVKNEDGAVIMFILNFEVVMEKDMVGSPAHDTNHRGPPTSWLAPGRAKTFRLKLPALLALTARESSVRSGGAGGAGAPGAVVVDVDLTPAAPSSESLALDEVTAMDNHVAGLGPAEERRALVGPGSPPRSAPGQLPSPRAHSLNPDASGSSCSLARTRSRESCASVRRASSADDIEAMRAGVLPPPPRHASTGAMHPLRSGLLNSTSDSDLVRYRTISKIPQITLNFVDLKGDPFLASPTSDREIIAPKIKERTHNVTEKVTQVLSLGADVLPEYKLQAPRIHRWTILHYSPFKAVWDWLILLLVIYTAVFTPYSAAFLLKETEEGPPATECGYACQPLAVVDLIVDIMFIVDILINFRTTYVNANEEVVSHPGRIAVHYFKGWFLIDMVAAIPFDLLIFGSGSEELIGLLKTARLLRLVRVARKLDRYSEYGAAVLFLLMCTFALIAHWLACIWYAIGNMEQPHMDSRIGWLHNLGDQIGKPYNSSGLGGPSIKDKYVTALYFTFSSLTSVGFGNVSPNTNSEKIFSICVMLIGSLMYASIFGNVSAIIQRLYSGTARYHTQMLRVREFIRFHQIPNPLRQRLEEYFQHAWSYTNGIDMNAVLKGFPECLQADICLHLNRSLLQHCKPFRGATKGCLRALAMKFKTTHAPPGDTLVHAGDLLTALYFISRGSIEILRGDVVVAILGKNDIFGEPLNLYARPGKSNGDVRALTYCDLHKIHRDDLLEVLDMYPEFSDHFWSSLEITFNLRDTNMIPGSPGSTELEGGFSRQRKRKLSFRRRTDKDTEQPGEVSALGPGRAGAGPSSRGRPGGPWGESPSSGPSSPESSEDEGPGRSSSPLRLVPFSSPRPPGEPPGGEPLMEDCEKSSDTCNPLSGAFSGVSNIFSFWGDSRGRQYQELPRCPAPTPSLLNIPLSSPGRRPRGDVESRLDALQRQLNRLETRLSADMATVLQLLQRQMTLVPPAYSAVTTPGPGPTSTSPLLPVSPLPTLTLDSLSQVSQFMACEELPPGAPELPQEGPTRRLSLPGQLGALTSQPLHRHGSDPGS

SMILES	hERG current change (%, negative = inhibition) at 10uM [%]
Cc1ccc(CNC(=O)C(=O)NCCC2CCCCN2S(=O)(=O)c2cccs2)cc1 (stereo not drawn)	-1.28
CCCCOc1ccc(-c2nc(=S)[nH][nH]2)cc1	-2.69
CC(=O)NCCC1CCN(C(=O)c2cc(COc3ccc(C)nc3)on2)CC1	16.4
CC(C)(C)C(=O)NC(=S)Nc1ccc(S(=O)(=O)Nc2nccs2)cc1	11.2
COC(=O)C1=C(c2cccc(C#N)c2)C[C@@H]2CC[C@H]1N2C(=O)NCCOc1ccc(OC)cc1	-20.3
CS(=O)(=O)N(CC(=O)N1CCCCC1)Cc1ccccc1	-1.07
Cc1cc2nc(C)n(CCCNC(=O)Nc3cccc4ccccc34)c2cc1C	-13.7
CCCn1nc(C(=O)NNC(=O)CCOc2ccccc2OCC)c2ccccc2c1=O	-21.8
O=C1OCc2cc(NS(=O)(=O)c3cccs3)ccc21	7.25
COc1ccc(OC)c(S(=O)(=O)N2CCC(C(=O)N3CCc4ccccc4C3)CC2)c1	-27.7
Cc1ccc(S(=O)(=O)NCCC(C)C)cc1[N+](=O)[O-]	-19.3
NC(=O)Cc1ccc(C(=O)c2ccc(Cl)cc2)s1	11.4
COC(=O)C1=C(CS(=O)(=O)c2ccc(C)cc2)NC(=O)NC1c1ccc(OC)c(OC)c1 (stereo not drawn)	13.2
COc1ccc(OC)c2c(N)c(C#N)c(C(F)(F)C(F)(F)F)nc12	12.8
Cn1c(=O)c2c(nc(N3CCOCC3)n2CCc2ccccc2)n(C)c1=O	34.9
COc1ccc(OC)c(NC(=S)N2c3ccccc3CC2C)c1 (stereo not drawn)	-25.7
COCCCNC(=O)CCCn1c(=O)c2ccccc2n(Cc2cccc([N+](=O)[O-])c2)c1=O	-20.3
COCCCn1c(SCc2ccc(OC)cc2)nc2cc(OC)c(OC)cc2c1=N	-0.472
CCCc1cc(=O)n2nc(N3CCC(C(=O)NCc4ccc(C)o4)CC3)sc2n1	-61.6
CCCCNC(=O)c1onc(CSc2cccc(C)c2)c1C(=O)O	9.56
COc1ccc(C(=O)CCS(=O)(=O)c2ccc(F)cc2)cc1OC	6.41

SMILES	hERG current change (%, negative = inhibition) at 10uM [%]
OCC1(CC2CCCCO2)CCN(Cc2nc3ccccc3[nH]2)CC1 (stereo not drawn)	18
CCOC(=O)C1(Cc2cccc(OC)c2)CCN(Cc2cccn2-c2ccccn2)CC1	-74.8
COc1cc(C2C(C#N)=C(N)Oc3c2ccc2ccccc32)ccc1OCC(=O)Nc1ccccc1C (stereo not drawn)	22.1
CN1c2ccccc2C(C)(C)C12CC(c1ccc(Cl)c(S(=O)(=O)N3CCCC3)c1)=NO2 (stereo not drawn)	7.23
O=C(Nc1cccc(S(=O)(=O)N2CCCCC2)c1)C1CC(=O)N(Cc2ccco2)C1 (stereo not drawn)	7.39
CC(C)(C)OC(=O)NCCCC[C@@H](C(=O)NCCCCCCCCCCC(=O)N1CCN(C(=O)OC(C)(C)C)CC1)n1cc(CCO)nn1	-1.16
NC(=S)N/N=C/c1c[nH]c2ccc(OCc3ccccc3)cc12	6.65
CCOc1ccc(S(=O)(=O)NNC(=O)c2cc3ccccc3o2)cc1	-20.6
O=C(NNC(=S)Nc1ccc(Cl)cc1Cl)C1CC1	-24
CC1=C(C(=O)Nc2ccc(C)cc2C)C(c2ccc(C)o2)NC(=O)N1 (stereo not drawn)	2.35
COc1ccc(CCNC(=O)CC(c2ccccc2)c2cccc(C)c2O)cc1OC (stereo not drawn)	-3.11
CCn1cc(C(=O)NCCCO)c(=O)c2cc(F)c(N3CCN(C)CC3)cc21.Cl	11
CCN(CCn1cccn1)Cc1nc(Cc2cccc(F)c2)no1	-7.22
CCOC(=O)c1cc(C#N)c(SC)nc1-c1ccccc1	-7.3
O=C(CSc1nc2ccccc2s1)Nc1cc(S(=O)(=O)N2CCOCC2)ccc1O	-11.6
Cc1cc(C)cc(NC(=O)Cc2ccc(S(=O)(=O)N3CCCC3)s2)c1	-18.1
Cc1ccc(C(=O)Nc2cccc(C(=O)NCc3ccccc3)c2)cc1	5.21
COCCCn1c(=S)[nH]c2ncccc2c1=O	4.06
COc1ccc(Br)cc1CN1CCCC(C(=O)N2CCCCC2)C1.O=C(O)C(=O)O (stereo not drawn)	-55.8
CC1(C)Oc2ccc(C(=O)N3CCCCC3)cc2N(CC(=O)NCc2ccccc2)C1=O	-3.99
O=c1cccc2n1CC1CC2CN(Cc2cccc(Cl)c2Cl)C1 (stereo not drawn)	-44.1

SMILES	hERG current change (%, negative = inhibition) at 10uM [%]
Cn1c(C(=O)OCC(=O)NCc2ccco2)cc2sccc21	-10.1
Cc1c(Cl)cnc(NC(=O)COC(=O)Cc2coc3ccc4ccccc4c23)c1Cl	-7.96
CCc1noc(C)c1C(=O)N1CCOCC1	14.4
Cc1cc(C)nc(/N=C(\N)Nc2ccc(OCc3ccccc3)cc2)n1	-78.2
CCOc1ccc(-c2c(C(=O)N/N=C/c3c[nH]c4ccccc34)nnn2-c2nonc2N)cc1	23.8
Cn1cc(C(=O)NCc2cccnc2)c(=O)c2cc(S(=O)(=O)N3CCCCCC3)ccc21	14.1
CCOc1ccccc1-c1nn2c(Cc3ccccc3)nnc2s1	4.53
CNC(=O)c1csc(Cc2c(Cl)sc3ccc(Cl)cc23)n1	-2.3
Cc1cccc(C)c1N(CC(=O)N1CCN(C)CC1)S(C)(=O)=O	16.9
CCOC(=O)C(Cc1ccccc1)c1ccnc2ncnn12 (stereo not drawn)	3.86
CCOC(=O)N1CCN(C2=C(NS(=O)(=O)c3ccccc3)C(=O)c3ccccc3C2=O)CC1	-8.45
CCOC(=O)c1sc(NC(=O)CSc2nc(C)cc(C)n2)c(C#N)c1C	7.09
O=C(Cc1c[nH]c2ccccc12)N/N=C/c1ccccc1O	0.316
CN(Cc1ccccc1)C(=O)CN1C(=O)NC(C)(c2ccc(Cl)cc2)C1=O (stereo not drawn)	1.93
O=C(Nc1ccon1)c1cc2ccccc2oc1=O	1.17
CCOC(=O)N1CCN(C(=O)COC(=O)C2CCN(S(=O)(=O)c3ccc(C)c(C)c3)CC2)CC1	-62.1
COc1ccc(CNC(=O)CC(C)S(=O)(=O)c2ccc3c(c2)NC(=O)CO3)cc1 (stereo not drawn)	10.1
O=C(O)/C=C\C(=O)O.OCCN1CCN(CC/C=C2/c3ccccc3CSc3ccccc32)CC1	-12.2
CCOC(=O)C1=C(C)NC(=S)NC1c1ccc(-c2ccc(Cl)cc2)o1 (stereo not drawn)	4.06
COc1cc(CN2CCC(CO)(Cc3cccc(C(F)(F)F)c3)CC2)ccc1F	-68.7
COc1ccc(NC(=O)OC(C)C)cc1	-4.06

SMILES	hERG current change (%, negative = inhibition) at 10uM [%]
Cc1cc(C)nc(SCC(=O)Nc2sc3c(c2C#N)CCC(C)C3)n1 (stereo not drawn)	14.7
COc1ccccc1NC(=O)Nc1nc(CC(=O)N2CCN(c3ccccc3OC)CC2)cs1	10.1
CCCc1cc(C(=O)NNC(=S)NCc2ccccc2)cs1	5
Cc1cccc(-c2nn(-c3ccccc3)cc2C(=O)N2CCN(C3CCS(=O)(=O)C3)CC2)c1 (stereo not drawn)	-36.6
CCOc1ccc(CCNC(=O)CCc2c(C)nc3ncnn3c2C)cc1OCC	-14.9
O=C(COC(=O)c1cccc(O)c1)Nc1ccc(N2CCOCC2)cc1	-3.36
O=C(NCCN1CCN(S(=O)(=O)c2ccc(F)cc2)CC1)C(=O)NCc1ccccc1	0.451
CC1Cc2ccccc2N1CC(=O)NC(=O)NCc1ccccc1 (stereo not drawn)	-4.86
COc1ccc(N2CCN(C3CCCN(C(=O)CN4CCCC4=O)C3)CC2)cc1 (stereo not drawn)	16.2
CCc1ccccc1Nc1nc(N)nc(COC(=O)c2cccn2C)n1	-21.5
COc1ccc(C2=NN(c3nc(-c4ccc(CNC(C)=O)cc4)cs3)C(c3ccco3)C2)cc1 (stereo not drawn)	12.2
Cc1nc(SCC(=O)N2CCc3ccccc3C2)c2c(C)c(C)sc2n1	-13.1
Cc1cc2c(=O)n(C)c(SCC(=O)Nc3cccc(F)c3)nc2s1	16.5
CN1CCN(c2nc3c(c(=O)[nH]c(=O)n3C)n2Cc2cccc(Br)c2)CC1	-53.5
O=C(O)C1CCCCC1C(=O)Nc1nc(-c2ccc(Cl)s2)cs1 (stereo not drawn)	13.7
COC(=O)c1cc([N+](=O)[O-])c(-n2ccnc2)c([N+](=O)[O-])c1	16
O=C(COC(=O)CNC(=O)c1ccc([N+](=O)[O-])o1)Nc1ncc(C(F)(F)F)cc1Cl	-58.3
Cc1cccc2cc(CN(Cc3ccco3)C(=O)Nc3cccc(C#N)c3)c(Cl)nc12	18.4
O=C(Nc1ccc(F)c(F)c1)c1ccc2c(c1)OCO2	-15.5
CCOC(=O)CCCCCN1C(=O)c2cccc3cccc(c23)C1=O	16.7
COc1cccc(-c2nc(CS(=O)(=O)CC(=O)Nc3ccc(F)cc3F)c(C)o2)c1	17.7
